Data on one compound can be found in patent US6258839A, “Isolation of naturally occuring isoflavanone and some clinical uses thereof” (priority 1997, dated 2001).

The subject of assay [1] is A17/Y181C, K103N. Nature of the assay: activity against HIV mutants: A17/Y181C, K103N. It is filed as cell-based, HIV-1.
Assay [2] deals with Thiazolo/V1081. Nature of the assay: activity against HIV mutants: Thiazolo/V1081. The following applies: Human immunodeficiency virus 1. The format is cell-based, HIV-1.

As to `COc1c(O)cc(C2COc3cc(O)cc(O)c3C2=O)cc1CC=C(C)C` (racemic) [PMZ-1], the results for the EC50 in assay [1] (Human immunodeficiency virus 1) and in assay [2] were 4.2 µM and > 5 µM, respectively. For the same compound, in assay [1] (isolated by Merck Sharp & Dohme), the “activity against double mutants (codons 103 and 181)” value is listed as “moderate activities”.
